The supplement of paper PMC12355420
Structures can show the parent of a compound that is named as a salt. The list shows a part of the results. Many values rest on one well or one pass, so single values are uncertain.
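Also: primary screen of an FDA-approved drug library in HeLa reporter cells in 96-well format, CellMask signal normalized to DMSO-treated wells set as 1, under 0.5 deemed highly cytotoxic.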

Each molecule was assayed on HeLa VPS33A reporter cells (assay: relative cell viability (CellMask signal) vs DMSO (fraction of DMSO); HeLa model of a glycosaminoglycan (GAG) storage disease; KI is knock-in and KO knock-out; SDC1 is syndecan 1; higher = less cytotoxic). Conditions: 50 µM; 24 h.
`OC(c1ccccc1)(c1ccccc1)C1CCNCC1` [Azacyclonol] was tested, and the relative cell viability was 1.1. `CCC12C=CCN3CC[C@@]4(c5ccc(OC)cc5N(C)[C@H]4[C@@](O)(C(=O)OC)[C@@H]1OC(C)=O)[C@@H]32` (stereo partly drawn) [Vindoline] was tested, and the relative cell viability was 1.03. `CN(C)C(=O)Oc1cc(OC(=O)N(C)C)cc(C(O)CNC(C)(C)C)c1` (stereo not drawn) [Bambuterol (hydrochloride)] gave a relative cell viability of 1.04. For `CN1C(=O)CCS(=O)(=O)C1c1ccc(Cl)cc1` (stereo not drawn) [Chlormezanone], the relative cell viability was 1.14. Molecule `CCN1CC2(OC(=O)c3ccccc3NC(C)=O)CCC(OC)C34C1C(CC23)C1(O)CC(OC)C2CC4C1(O)C2OC` (stereo not drawn) [Lannaconitine] has a relative cell viability of 0.86. For `Cc1cc(C(C#N)c2ccc(Cl)cc2)c(Cl)cc1NC(=O)c1cc(I)cc(I)c1O` (stereo not drawn) [Closantel Sodium], the relative cell viability was 0.69. With `c1ccc2c(c1)sc1ccccc12` [Dibenzothiophene] the relative cell viability was 0.954. With `Cn1c(CCCC(=O)O)nc2cc(N(CCCl)CCCl)ccc21` [Bendamustine HCl] the relative cell viability was 1.24. Work on `NCC(O)c1ccc(O)cc1` (racemic) [(+,-)-Octopamine HCl] yielded a relative cell viability of 1.02. Work on `CCN(C)C(=O)Oc1cccc([C@H](C)N(C)C)c1` [Rivastigmine] yielded a relative cell viability of 1.04. `CN[C@H]1[C@H](O)[C@H](O[C@@H]2[C@@H](O)[C@H](O[C@H]3O[C@H](C(C)O)[C@@H](O)[C@H](O)[C@H]3N)[C@@H](N)C[C@H]2N)OC[C@@]1(C)O` (stereo partly drawn) [Geneticin, G-418 Sulfate] gave a relative cell viability of 1.3. Work on `CN1[C@@H]2C[C@@H](OC(=O)[C@H](CO)c3ccccc3)C[C@H]1[C@@H]1O[C@@H]12` [Scopolamine hydrobromide] yielded a relative cell viability of 1.04. Molecule `O=P1(N(CCCl)CCCl)NCCCO1` (stereo not drawn) [Cyclophosphamide monohydrate] has a relative cell viability of 1.05. `CNCC(O)c1ccc(O)cc1` (stereo not drawn) [Synephrine] was tested, and the relative cell viability was 0.869. In the case of `CN(C)C(=O)Oc1ccc[n+](C)c1` [Pyridostigmine Bromide], the relative cell viability is reported as 0.908. `NCCc1ccc(O)cc1` [Tyramine] was tested, and the relative cell viability was 0.985. For `O=S(=O)(F)Cc1ccccc1`, the relative cell viability was 1.34. Molecule `C[C@]12CCC(=O)C[C@@H]1CC[C@@H]1[C@@H]2CC[C@]2(C)[C@@H](O)CC[C@@H]12` [Dihydrotestosterone(DHT)] has a relative cell viability of 1.01. Molecule `CO[C@]12C[C@@H](COC(=O)c3cncc(Br)c3)CN(C)[C@@H]1Cc1cn(C)c3cccc2c13` [Nicergoline] has a relative cell viability of 0.952. Work on `O=P1(N(CCCl)CCCl)NCCCO1` (stereo not drawn) [Cyclophosphamide] yielded a relative cell viability of 1.3. `CN(C)NC(=O)CCC(=O)O` [Daminozide] gave a relative cell viability of 1.13. In the case of `CCOC(=O)c1cncn1[C@H](C)c1ccccc1` [Etomidate hydrochloride], the relative cell viability is reported as 1.17. In the case of `CC(=O)[C@H]1CC[C@H]2[C@@H]3CC[C@H]4C[C@H](O)CC[C@]4(C)[C@H]3CC[C@]12C` [Allopregnanolone], the relative cell viability is reported as 1.16. For `C=C[C@H]1CN2CC[C@H]1C[C@H]2[C@H](O)c1ccnc2ccccc12` [Cinchonidine], the relative cell viability was 1.06. In the case of `CNCC(=O)c1ccc(O)c(O)c1` [Adrenalone HCl], the relative cell viability is reported as 1.26. In the case of `CCN(C)C(=O)Oc1cccc([C@H](C)N(C)C)c1` [Rivastigmine Tartrate], the relative cell viability is reported as 1.13. Work on `CCC1=C[C@H]2CN3CCc4c([nH]c5ccccc45)[C@](C(=O)OC)(C2)[C@H]13` [Catharanthine] yielded a relative cell viability of 0.891. In the case of `CCC1(c2cccc(O)c2)CCCCN(C)C1` (stereo not drawn) [Meptazinol HCl], the relative cell viability is reported as 0.941. `COc1cc2c(cc1OC)C1CC(=O)C(CC(C)C)CN1CC2` (stereo not drawn) [Tetrabenazine] was tested, and the relative cell viability was 1.03. Molecule `CN(C)C(=O)Oc1cccc([N+](C)(C)C)c1` [Neostigmine Bromide] has a relative cell viability of 1.08. `COc1ccc(C(=O)N2CCCC2=O)cc1` [Aniracetam] gave a relative cell viability of 1.28. In the case of `CC(C)N(CCNC(=O)CN1CCCC1=O)C(C)C` [Pramiracetam], the relative cell viability is reported as 1.12. With `COc1ccc2[nH]cc(CCN)c2c1` [5-Methoxytryptamine] the relative cell viability was 1.05. `COC1=C[C@@H]2[C@@H]3Cc4ccc(OC)c(O)c4[C@]2(CCN3C)CC1=O` [Sinomenine Hydrochloride] was tested, and the relative cell viability was 0.982. `CCC1(c2ccc(N)cc2)CCC(=O)NC1=O` (stereo not drawn) [Aminoglutethimide] showed a relative cell viability of 1.22. Work on `CC(C)C[C@H]1C(=O)N2CCC[C@H]2[C@]2(O)O[C@](NC(=O)[C@@H]3C=C4c5cccc6[nH]c(Br)c(c56)C[C@H]4N(C)C3)(C(C)C)C(=O)N12` [Bromocriptine mesylate] yielded a relative cell viability of 1.17. Molecule `C=CC[C@]1(O)CC[C@H]2[C@@H]3CCC4=CC(=O)CCC4=C3C=C[C@@]21C` [Altrenogest] has a relative cell viability of 1.15. `CN1[C@H]2C[C@H](OC(=O)[C@H](CO)c3ccccc3)C[C@@H]1[C@@H](O)C2` [Anisodamine] was tested, and the relative cell viability was 1.02.
